From PubChem BioAssay AID1745845 (National Center for Advancing Translational Sciences (NCATS), 2022)
Where “and” joins values, the source holds several entries; their conditions need not be identical. Equal entries are not always repeated. In all, about 360,000 compounds went through this assay and about 2,600 (0.72%) were called active. The shares of active, inactive and inconclusive entries below differ from those in the screen. Calls come from the whole dose curve; as a rule, active = well fitted inhibition curve with a large enough effect; inconclusive = small, poorly fitted or top-dose-only effect; inactive = no such curve, though single readings can be large or run the other way. Potencies beside an inconclusive call are fits to weak or partial responses and may not hold up. Some compounds were tested as several samples or in several runs, with calls that do not always agree.

Assay: Primary qHTS for Inhibitors of ATXN expression; note: nearly all actives have a fitted effect of over 55% in size
Conditions: HEK-293 ATXN2-luciferase reporter, luminescence, 24 h; activity change, negative = inhibition: at 57 µM (top of the series)
How it was run: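 ATXN2-luciferase reporter cells (luciferase flanked by upstream and downstream ATXN2 gene portions) were treated 24 h at 37 °C with compounds at up to 57 uM. SteadyGlo luminescence gave expression; GF-AFC fluorescence gave viability.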
% is set by controls: 0 for no effect and ±100 for the full control effect; potency is the fitted concentration of half-maximal effect; tags give direction and shape of the fitted curve.

| Structure (SMILES) | activity change, negative = inhibition | Potency |
| --- | --- | --- |
| C=C(C)C1CC=C(CN2CC(C)OC(C)C2)CC1 (stereo unspecified) | inactive: 2.73% |  |
| Cc1nc2c(-c3ccc(F)cc3)cnn2c(N)c1-c1ccccc1 |  | inconclusive: 39.8 µM [inhibitor, single point] |
| N#C/C(N=Nc1ccccc1O)=N\Nc1ccccc1O |  | inconclusive: 12.6 µM [inhibitor, partial curve] |
| CCOc1ccc(C(=O)Nc2ccc(S(=O)(=O)N3C[C@@H]4C[C@@H](C3)c3cccc(=O)n3C4)cc2)cc1 | inactive: -20.9% |  |
| O=C(Nc1nncs1)c1cccc(S(=O)(=O)N2CCc3ccccc32)c1 | inactive: -18.6% |  |
| COc1cc(C(=O)Nc2nc(-c3cccs3)cs2)cc(OC)c1OC |  | inconclusive: 39.8 µM [inhibitor, single point] |
| Cc1nc2c(-c3ccc(Cl)cc3)c(C)[nH]n2c(=O)c1Cc1ccccc1 |  | inconclusive: 7.94 µM [inhibitor, partial curve, poor fit] |
| O=C(NCc1ccccc1F)c1cccc(S(=O)(=O)NCc2ccccc2)c1 | inactive: -5.34% |  |
| Cn1nnnc1Sc1ncnc2scc(Br)c12 |  | active: 17.8 µM |
| CCOc1ccc(C(=O)NCc2ccc3c(c2)OCO3)cc1OCC | inconclusive: -43% [inhibitor] |  |
| Cc1ccc(C(=O)n2c(N)nc3ccccc32)cc1 |  | active: 2.82 µM |
| CCN(Cc1ccccc1)S(=O)(=O)c1ccc(C(=O)N(CCCN(C)C)c2nc3cc4c(cc3s2)OCCO4)cc1 |  | inconclusive: 39.8 µM [inhibitor, single point] |
| CS(=O)(=O)c1ccc(CNC(=O)C2(C(F)(F)F)CC(CCCO)CCCO2)cc1 (stereo unspecified) | inactive: -22.5% |  |
| CCc1c(C)sc2c1CCN(Cc1cccc(F)c1)C2c1ccccc1 (stereo unspecified) |  | inconclusive: 39.8 µM [inhibitor, single point] |
| O=C(NCc1cccc(Cl)c1)c1cc2c(s1)-c1ccccc1OC2 |  | inconclusive: 39.8 µM [inhibitor, single point] |
| N#CCc1ccc(NC(=O)/C=C/c2ccc([N+](=O)[O-])o2)cc1 |  | active: 8.91 µM |
| COCCNc1nc(NCc2ccccc2F)c2sccc2n1 |  | inconclusive: 14.1 µM [inhibitor, partial curve, poor fit] |
| Cn1cnnc1SCc1ccc(C(=O)N=Nc2c(O)n(Cc3ccc(Cl)cc3)c3ccccc23)cc1 |  | inconclusive: 39.8 µM [inhibitor, single point] |
| O=C(NCCCN1CCN(c2ccccc2F)CC1)Nc1ccc(F)cc1 | inactive: -5.63% |  |
| CCn1c(/C=C/c2cc(Br)ccc2O)nc2ccccc2c1=O |  | inconclusive: 39.8 µM [inhibitor, single point] |
| CCCCN1C(=O)C(CC(=O)NC2CCCCC2)CC(C(=O)N(C)C)=C1C (stereo unspecified) | inactive: -6.52% |  |
| O=C(COc1ccc(-n2cnnn2)cc1)Nc1cccc(Cl)c1Cl | inactive: -9.31% |  |
| Cc1cc(-c2nn(-c3ccccc3)cc2/C=C2\SC(N)=NC2=O)ccc1OC(C)C | inactive: -23.3% |  |
| CCCCCCCCCCCCCCCC[N+](C)(C)CCN(Cc1ccc(OC)cc1)c1ncccn1 |  | inactive and active: 35.5 µM |

| Structure (SMILES) | activity change, negative = inhibition | Potency |
| --- | --- | --- |
| CC(C)(C)n1nnnc1C(c1cccs1)N(Cc1cccnc1)Cc1ccccc1Cl (stereo unspecified) |  | inconclusive: 31.6 µM [inhibitor, single point] |
| NC(=S)N/N=C/c1ccc(C23CC4CC(CC(C4)C2)C3)cc1 |  | inconclusive: 12.6 µM [inhibitor, single point] |
| CCOC(=O)c1c(SCCN2CCCC2)n(-c2ccccc2)c(=S)n(-c2ccccc2)c1=O |  | active: 22.4 µM |
| Cc1ccc(-c2ccc(C(=O)O)c(C)n2)cc1 | inactive: 10% |  |
| O=C(CCCOc1ccc(Cl)cc1Cl)Nc1ccccc1C(=O)O | inactive: 174% |  |
| O=C(c1cc(-c2ccc(Cl)cc2Cl)on1)N1CCOCC1 |  | inconclusive: 15.8 µM [inhibitor, single point] |
| COC(=O)c1c(C)oc2ccc(N(C(=O)c3ccncc3)S(=O)(=O)c3ccc(C)cc3C)cc12 |  | inconclusive: 15 µM [inhibitor, partial curve] |
| O=C(O)c1cccc(COc2ccccc2Cl)c1 |  | active: 0.708 µM |
| CCOC(=O)c1ccccc1NC(=O)C(=O)Nc1ccc2nc3n(c(=O)c2c1)CCCCC3 |  | inconclusive: 1.26 µM [inhibitor, partial curve, poor fit] |
| CC(C)N1CCc2c(sc(NC(=O)c3ccc(C(=O)c4ccccc4)cc3)c2C(N)=O)C1 |  | inconclusive: 11.2 µM [inhibitor, partial curve] |
| CC(=O)Nc1ccc(NC(=O)C(C)OC(=O)c2ccc(S(=O)(=O)N3CCCCCC3)cc2)cc1 (stereo unspecified) |  | inconclusive: 31.6 µM [inhibitor, single point] |
| O=C1Nc2cccnc2N(C(=O)CCl)c2ccccc21 |  | inconclusive: 39.8 µM [inhibitor, single point] |
| CC(C)CC(N)c1csc(NC(=O)C(c2ccccc2)c2ccccc2)n1 (stereo unspecified) |  | inconclusive: 39.8 µM [inhibitor, single point] |
| CC1CCN(CC(O)COCCC23CC4CC(CC(C4)C2)C3)CC1 (stereo unspecified) |  | inconclusive: 25.1 µM [inhibitor, single point] |
| CCCCNC(=O)c1onc(CSc2cccc(OC)c2)c1C(=O)NCCCC | inactive: 1.64% |  |
| CCc1cc(Cn2nc(-c3ccccc3)cc2C(=O)NCc2cccc(C(F)(F)F)c2)on1 |  | inconclusive: 22.4 µM [inhibitor, single point] |
| COC(=O)c1ccc(Oc2coc3cc(OCc4cnn(-c5ccccc5)c4)ccc3c2=O)cc1 |  | inconclusive: 12.6 µM [inhibitor, partial curve, poor fit] |
| O=C(NCc1ccco1)c1ccc(-c2cccc(Cl)c2)o1 |  | inconclusive: 29.9 µM [inhibitor, single point] |
| CCn1ccnc1CNC(=O)c1ccc2oc(CCCc3ccccc3)nc2c1 | inactive: -1.43% |  |
| Cc1cc(NS(=O)(=O)c2ccc(NC(=O)CCc3ccccc3)cc2)no1 |  | inconclusive: 35.5 µM [inhibitor, partial curve, poor fit] |
| Cc1ccc(NC(=O)c2cnn3c(C(F)F)cc(-c4ccccc4)nc23)c(C)c1 | inactive: 7.81% |  |
| CCN(CC)CCCC(C)Nc1c2ccc(Cl)cc2nc2ccc(OC)cc12 (stereo unspecified) |  | inconclusive: 5.62 µM [inhibitor, full curve, poor fit] |
| COc1ccc2ccccc2c1-c1sc(Nc2ccccc2)n[n+]1-c1ccc(F)cc1 |  | active: 28.2 µM |
| COc1ccc(/C(C)=N/Nc2nccnc2Cl)cc1 | inactive: -27.5% |  |

| Structure (SMILES) | activity change, negative = inhibition | Potency |
| --- | --- | --- |
| c1ccc2c(c1)c1c(c3ccccc32)CN2CCCC2C1 (stereo unspecified) |  | inconclusive: 26.7 µM [inhibitor, partial curve, poor fit] |
| CCOC(=O)C1=C(C)N=C2SC=C(C)N2C1c1ccc(OC)cc1 (stereo unspecified) | inactive: -25.3% |  |
| Cc1cc(Nc2cccc([N+](=O)[O-])c2)n2c(nc3ccccc32)c1C#N |  | active: 8.91 µM |
| COc1ccccc1CNC(=O)CCn1c(=O)c2ccccc2n(CC(=O)Nc2cccc(Cl)c2)c1=O |  | inconclusive: 39.8 µM [inhibitor, single point] |
| Cc1nc2ccccc2n1-c1nc(-c2ccco2)cc(C(F)(F)F)n1 |  | inconclusive: 25.1 µM [inhibitor, single point] |
| COc1ccc(OC)c(/C=N/NC(=O)c2cc(-c3ccc(C)o3)nc3ccccc23)c1 | inactive: 5.51% |  |
| COC(=O)c1ccccc1NC(=O)NN1CCN(C)CC1 | inactive: -20.1% |  |
| C/C(=N\NC(=S)NCC(C)(C)C)c1cc(F)cc(F)c1O |  | inconclusive: 35.5 µM [inhibitor, single point] |
| O=C(Nc1c(F)cccc1F)c1cnc(N2CCN(c3ccccn3)CC2)c2ccccc12 |  | inconclusive: 25.1 µM [inhibitor, single point] |
| CN(C)Cc1cc(C(C)(C)c2cc(CN(C)C)c(O)c(CN(C)C)c2)cc(CN(C)C)c1O |  | inconclusive: 39.8 µM [inhibitor, partial curve, poor fit] |
| Cc1cc(C)cc(C(=O)Nc2ccc(-c3nc4ncccc4o3)cc2)c1 |  | inconclusive: 1 µM [inhibitor, full curve] |
| Cc1ccc(-c2noc(CCCC(=O)N3CCOCC3)n2)cc1 | inactive: -11.9% |  |
| O=C(NCc1ccc(Cl)cc1)c1cc(S(=O)(=O)N2CCCCC2)c[nH]1 |  | inconclusive: 25.1 µM [inhibitor, partial curve, poor fit] |
| CCOCCCNC(=O)/C(C#N)=C/c1cc(OC)c(O)c([N+](=O)[O-])c1 | inactive: -14.5% |  |
| CCN(CC)CCNc1ccc(C)c2sc3ccc(O)cc3c(=O)c12 |  | inconclusive: 13.4 µM [inhibitor, partial curve, poor fit] |
| COc1ccccc1NC(=O)Cn1nc(-c2ccc3c(c2)OCCO3)ccc1=O | inactive: -20.8% |  |
| Cc1[nH]c2ccc(Br)cc2c(=S)c1C/C=C/Cl |  | inconclusive: 31.6 µM [inhibitor, partial curve, poor fit] |
| O=C1N(c2ccccc2C(F)(F)F)OC1(Cc1ccccc1)c1ccccc1 (stereo unspecified) |  | inconclusive: 39.8 µM [inhibitor, single point] |
| COc1ccc(C(C[N+](=O)[O-])n2nc(C)cc2C)cc1 (stereo unspecified) |  | inconclusive: 31.6 µM [inhibitor, single point] |
| CCOC(=O)N1CCC(Nc2c(OCC)c(=O)c2=O)CC1 | inactive: -2.85% |  |
| COCC(=O)N/N=C\c1cccc(OC)c1OC/C=C/c1ccccc1 |  | inconclusive: 5.01 µM [inhibitor, partial curve, poor fit] |
| Cc1ccnc(NC(c2ccccc2F)c2ccc3cccnc3c2O)c1 (stereo unspecified) |  | inconclusive: 12.6 µM [inhibitor, partial curve, poor fit] |
| NC(=S)n1[nH]c(-c2ccc([N+](=O)[O-])cc2)c(N=Nc2cccc(Cl)c2)c1=O |  | inconclusive: 12.6 µM [inhibitor, partial curve, poor fit] |
